Measured values: publication PMC5640511 (Current Biology, 2017)

Experiments:
Experiment in all cases: SEC
[1] = molecular target: BubR1 1-571 wt (recombinant, without Bub3) (human, UniProt O60566 1-571)
[2] = molecular target: BubR1 1-571 ΔLL (recombinant, without Bub3) (human, UniProt O60566 1-571, ΔLL (deletion of residues 363–396))
BubR1 1-571 wt/Bub3 = BubR1 1-571 wt/Bub3 (human, UniProt O60566;O43684)
BubR1 1-571 ΔLL/Bub3 = BubR1 1-571 ΔLL/Bub3 (human, UniProt O60566;O43684, ΔLL (deletion of residues 363–396))

- binding result [1]: binds
- binding result [2]: binds
- binding result (BubR1 1-571 wt/Bub3): binds
- binding result (BubR1 1-571 ΔLL/Bub3): binds
B1: Mad2 (recombinant) (natural protein)
chain: not shown
